The Kd is the equilibrium constant for the complex coming apart. Low readings indicate a tighter complex, high ones a looser complex.

Our source for the Kd values is patent publication US12583836B2 (Anaxis Pharma Pty Ltd, priority 2020, dated 2026).

One assay addresses T1, MLKL (full length) (Homo sapiens, UniProt Q8NB16).
T1 construct: purchased DiscoverX (KINOMEscan service); host or cells: E. coli BL21-derived (T7 phage) or HEK293
T1 sequence (Q8NB16 1-471): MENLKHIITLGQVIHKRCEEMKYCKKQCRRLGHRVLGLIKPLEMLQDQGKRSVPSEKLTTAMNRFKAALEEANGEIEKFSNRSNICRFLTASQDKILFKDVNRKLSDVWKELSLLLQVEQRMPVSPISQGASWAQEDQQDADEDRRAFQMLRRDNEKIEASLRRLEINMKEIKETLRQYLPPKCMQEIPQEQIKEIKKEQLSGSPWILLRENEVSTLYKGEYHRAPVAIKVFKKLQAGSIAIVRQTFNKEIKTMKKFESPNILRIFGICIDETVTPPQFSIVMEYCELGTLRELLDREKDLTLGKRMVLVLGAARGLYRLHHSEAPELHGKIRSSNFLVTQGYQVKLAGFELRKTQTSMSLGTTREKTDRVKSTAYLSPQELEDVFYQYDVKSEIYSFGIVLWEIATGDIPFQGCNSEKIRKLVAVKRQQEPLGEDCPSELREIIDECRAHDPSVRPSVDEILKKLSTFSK
The assay is described as follows: KINOMEscan binding assay, MLKL. To be noted: equilibrium dissociation constant, class symbols. From the text: The Hill Slope was set to −1.

In the next assay the target is T2, RIP1 (Homo sapiens, UniProt Q13546).
T2 construct: purchased DiscoverX (KINOMEscan service); host or cells: E. coli BL21-derived (T7 phage) or HEK293
T2 sequence (Q13546 1-671): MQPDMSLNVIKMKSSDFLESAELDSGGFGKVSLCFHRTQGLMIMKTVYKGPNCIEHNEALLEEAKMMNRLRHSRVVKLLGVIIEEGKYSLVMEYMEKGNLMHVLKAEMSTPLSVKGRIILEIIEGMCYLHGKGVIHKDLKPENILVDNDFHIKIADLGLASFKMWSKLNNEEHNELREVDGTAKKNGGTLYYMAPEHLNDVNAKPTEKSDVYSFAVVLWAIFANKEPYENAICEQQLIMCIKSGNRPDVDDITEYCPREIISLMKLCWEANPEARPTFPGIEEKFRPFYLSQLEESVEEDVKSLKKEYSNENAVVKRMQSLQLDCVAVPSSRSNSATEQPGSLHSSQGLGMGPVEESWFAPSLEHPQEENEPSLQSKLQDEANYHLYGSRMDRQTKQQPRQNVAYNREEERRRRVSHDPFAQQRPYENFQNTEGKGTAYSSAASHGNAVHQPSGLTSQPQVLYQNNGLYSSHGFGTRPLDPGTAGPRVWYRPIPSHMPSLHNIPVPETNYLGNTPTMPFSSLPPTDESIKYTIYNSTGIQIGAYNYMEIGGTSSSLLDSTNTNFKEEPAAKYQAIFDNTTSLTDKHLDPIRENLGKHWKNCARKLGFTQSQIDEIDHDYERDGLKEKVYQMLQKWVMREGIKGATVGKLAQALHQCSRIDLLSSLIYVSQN
The assay is described as follows: KINOMEscan binding assay, RIP1. Conditions: equilibrium dissociation constant, class symbols.

On to `COC[C@H](Cc1cc(-c2n[nH]c(Nc3cnccn3)c2C(N)=O)ccc1NS(=O)(=O)C(F)F)c1ccc(F)cc1` (single isomer, unassigned) [Compound 272], for which the Kd on MLKL (full length) is under 0.01 µM; on RIP1, over 30 µM.

As to `CCS(=O)(=O)Nc1ccc(-c2n[nH]c(Nc3cnccn3)c2C(N)=O)cc1OCc1ccc(F)c(F)c1` [Compound 1, 3-(3-((3,4-difluorobenzyl)oxy)-4-(ethylsulfonamido)phenyl)-5-(pyrazin-2-ylamino)-1H-pyrazole-4-carboxamide], the Kd at MLKL (full length) is under 0.01 µM; at RIP1, over 30 µM.

As for `CCS(=O)(=O)Nc1ccc(-c2n[nH]c(Nc3cccnc3)c2C(N)=O)cc1OCc1ccc(F)cc1` [Compound 6, 3-(4-(ethylsulfonamido)-3-((4-fluorobenzyl)oxy)phenyl) 5-(pyridin-3-ylamino)-1H pyrazole-4-carboxamide], the Kd at MLKL (full length) was 0.01 to 1 µM; on RIP1, over 30 µM.

With `CCS(=O)(=O)Nc1ccc(-c2n[nH]c(Nc3cccc(C(F)(F)F)n3)c2C(N)=O)cc1OCc1ccc(F)cc1` [Compound 8, 3-(4-(ethylsulfonamido)-3-((4-fluorobenzyl)oxy)phenyl)-5-((6-(trifluoromethyl)pyridin-2-yl)amino)-1H-pyrazole-4-carboxamide], the Kd at MLKL (full length) is 0.01 to 1 µM; on RIP1, over 30 µM.

Turning to `CCS(=O)(=O)Nc1ccc(-c2n[nH]c(Nc3cccc(OC)n3)c2C(N)=O)cc1OCc1ccc(F)cc1` [Compound 11, 3-(4-(ethylsulfonamido)-3-((4-fluorobenzyl)oxy)phenyl) 5-((6-methoxypyridin-2-yl)amino)-1H-pyrazole-4 carboxamide], the results for the Kd at MLKL (full length) and at RIP1 were under 0.01 µM and over 30 µM, respectively.

Consider `CCS(=O)(=O)Nc1ccc(-c2n[nH]c(Nc3cncc(OC)n3)c2C(N)=O)cc1OCc1ccc(F)cc1` [Compound 15, 3-(4-(ethylsulfonamido)-3-((4-fluorobenzyl)oxy)phenyl) 5-((6-methoxypyrazin-2-yl)amino)-1H-pyrazole-4 carboxamide], for which the Kd at MLKL (full length) is under 0.01 µM; on RIP1, over 30 µM.

For the compound `CCS(=O)(=O)Nc1ccc(-c2n[nH]c(Nc3cncc(C(F)(F)F)n3)c2C(N)=O)cc1OCc1ccc(F)cc1` [Compound 17, 3-(4-(ethylsulfonamido)-3-((4-fluorobenzyl)oxy)phenyl) 5-((6-(trifluoromethyl)pyrazin-2 yl)amino)-1H-pyrazole-4 carboxamide], the Kd at MLKL (full length) was under 0.01 µM; on RIP1 it was over 30 µM.

As for `CCS(=O)(=O)Nc1ccc(-c2n[nH]c(Nc3cnccn3)c2C(N)=O)cc1Oc1ccc(F)cc1` [Compound 19, 3-(4-(ethylsulfonamido)-3-(4-fluorophenoxy)phenyl)-5-(pyrazin-2-ylamino)-1H-pyrazole-4-carboxamide], the values for the equilibrium dissociation constant (Kd) on MLKL (full length) and on RIP1 were under 0.01 µM and over 30 µM, respectively.

Consider `NC(=O)c1c(-c2ccc(NS(=O)(=O)CCC(F)F)cc2)n[nH]c1Nc1cnccn1` [Compound 23, 3-(4-((3,3-difluoropropyl)sulfonamido)phenyl)-5-(pyrazin-2-ylamino)-1H-pyrazole-4-carboxamide], for which the Kd on MLKL (full length) is under 0.01 µM; at RIP1 it was over 30 µM.

Take `CCS(=O)(=O)Nc1ccc(-c2n[nH]c(Nc3ccccn3)c2C(N)=O)cc1OCc1ccncc1` [Compound 27, 3-(4-(ethylsulfonamido)-3-(pyridin-4-ylmethoxy)phenyl)-5-(pyridin-2-ylamino)-1H-pyrazole-4-carboxamide]: the figures for the Kd at MLKL (full length) and at RIP1 were under 0.01 µM and over 30 µM, respectively.

For `N#CCS(=O)(=O)Nc1ccc(-c2n[nH]c(Nc3cccc(C(F)(F)F)n3)c2C(N)=O)cc1` [Compound 29, 3-(4-((cyanomethyl)sulfonamido)phenyl)-5-((6-(trifluoromethyl)pyridin-2-yl)amino)-1H-pyrazole-4-carboxamide], the Kd is under 0.01 µM on MLKL (full length) and over 30 µM at RIP1.

As for `CCS(=O)(=O)Nc1ccc(-c2n[nH]c(Nc3ccccn3)c2C(N)=O)cc1OCc1cccnc1` [Compound 31, 3-(4-(ethylsulfonamido)-3-(pyridin-3-ylmethoxy)phenyl)-5-(pyridin-2-ylamino)-1H-pyrazole-4-carboxamide], the figures for the equilibrium dissociation constant (Kd) on MLKL (full length) and on RIP1 were under 0.01 µM and over 30 µM, respectively.

With `CCS(=O)(=O)Nc1ccc(-c2n[nH]c(Nc3cccc(C(F)(F)F)n3)c2C(N)=O)cc1OCc1cccnc1` [Compound 33, 3-(4-(ethylsulfonamido)-3-(pyridin-3-ylmethoxy)phenyl)-5-((6-(trifluoromethyl)pyridin-2-yl)amino)-1H-pyrazole-4-carboxamide], the Kd on MLKL (full length) was 0.01 to 1 µM; on RIP1, over 30 µM.

On to `CCS(=O)(=O)Nc1ccc(-c2n[nH]c(Nc3ccccn3)c2C(N)=O)cc1OCC1CCCC1` [Compound 36, 3-(3-(cyclopentylmethoxy)-4-(ethylsulfonamido)phenyl)-5-(pyridin-2-ylamino)-1H-pyrazole-4-carboxamide], for which the Kd is 0.01 to 1 µM at MLKL (full length) and 1 to 30 µM at RIP1.

As to `CCS(=O)(=O)Nc1ccc(-c2n[nH]c(Nc3ccccn3)c2C(N)=O)cc1OCc1cccc(Cl)c1` [Compound 38, 3-(3-((3-chlorobenzyl)oxy)-4-(ethylsulfonamido)phenyl)-5-(pyridin-2-ylamino)-1H-pyrazole-4-carboxamide], the values for the Kd on MLKL (full length) and at RIP1 were under 0.01 µM and 1 to 30 µM, respectively.

On to `CCS(=O)(=O)Nc1ccc(-c2n[nH]c(Nc3cncc(C(F)(F)F)n3)c2C(N)=O)cc1` [Compound 44, 3-(4-(ethylsulfonamido)phenyl)-5-((6-(trifluoromethyl)pyrazin-2-yl)amino)-1H-pyrazole-4-carboxamide], for which the dissociation constant Kd on MLKL (full length) was 0.01 to 1 µM; at RIP1, over 30 µM.

On to `CCS(=O)(=O)Nc1ccc(-c2n[nH]c(Nc3cccc(C(F)(F)F)n3)c2C(N)=O)cc1OCc1ccccc1` [Compound 46, 3-(3-(benzyloxy)-4-(ethylsulfonamido)phenyl)-5-((6-(trifluoromethyl)pyridin-2-yl)amino)-1H-pyrazole-4-carboxamide], for which the Kd on MLKL (full length) was 0.01 to 1 µM; at RIP1 it was over 30 µM.

As to `NC(=O)c1c(-c2ccc(NS(=O)(=O)C(F)F)cc2)n[nH]c1Nc1ccccn1` [Compound 48, 3-(4-((difluoromethyl)sulfonamido)phenyl)-5-(pyridin-2-ylamino)-1H-pyrazole-4-carboxamide], the Kd on MLKL (full length) was under 0.01 µM; at RIP1, over 30 µM.

`CN(C)CCS(=O)(=O)Nc1ccc(-c2n[nH]c(Nc3cccc(C(F)(F)F)n3)c2C(N)=O)cc1` [Compound 51, 3-(4-((2-(dimethylamino)ethyl)sulfonamido)phenyl)-5-((6-(trifluoromethyl)pyridin-2-yl)amino)-1H-pyrazole-4-carboxamide]: the figures for the Kd at MLKL (full length) and at RIP1 were 0.01 to 1 µM and over 30 µM, respectively.

Regarding `NC(=O)c1c(-c2ccc(NS(=O)(=O)Cc3ccc(F)cc3)cc2)n[nH]c1Nc1cccc(C(F)(F)F)n1` [Compound 55, 3-(4-(((4-fluorophenyl)methyl)sulfonamido)phenyl)-5-((6-(trifluoromethyl)pyridin-2-yl)amino)-1H-pyrazole-4-carboxamide], the figures for the Kd at MLKL (full length) and at RIP1 were 0.01 to 1 µM and over 30 µM, respectively.

Take `NC(=O)c1c(-c2ccc(NS(=O)(=O)Cc3ccccc3Cl)cc2)n[nH]c1Nc1cccc(C(F)(F)F)n1` [Compound 58, 3-(4-(((2-chlorophenyl)methyl)sulfonamido)phenyl)-5-((6-(trifluoromethyl)pyridin-2-yl)amino)-1H-pyrazole-4-carboxamide]: the Kd on MLKL (full length) is 0.01 to 1 µM; at RIP1, over 30 µM.
